Experimental data taken from the supplement of paper PMC8728848.
Some of the results follow.

Legend:
Test in all cases: glycan array binding signal (z-score within array); higher = stronger binding
Settings in all cases: glycan notation: IUPAC condensed, linker removed
GalNAc(b1-4)GlcNAc = target: GalNAc(b1-4)GlcNAc
Procedure, shortened: (§1)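 The Consortium for Functional Glycomics database supplied 3228 glycan arrays, of which those lacking an available protein sequence were dropped. The binding signal, a within-array Z-score, was averaged across arrays of the same protein sequence and across linkers. Negative scores can be read as non-binding.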

[1] = target: GalNAc(b1-4)GlcNAc(b1-2)Man
Procedure, shortened: as §1

[2] = target: GalNAc(b1-4)GlcNAc(b1-2)Man(a1-3)[GalNAc(b1-4)GlcNAc(b1-2)Man(a1-6)]Man(b1-4)GlcNAc(b1-4)GlcNAc
Procedure, shortened: as §1

[3] = target: GalNAc(b1-4)GlcNAc(b1-3)GalNAc(b1-4)GlcNAc
Procedure, shortened: as §1

GalNAc(b1-4)GlcNAc6S = target: GalNAc(b1-4)GlcNAc6S
Procedure, shortened: as §1

GalNAc(b1-6)GalNAc = target: GalNAc(b1-6)GalNAc
Procedure, shortened: as §1

GalNAc3S(b1-4)GlcNAc = target: GalNAc3S(b1-4)GlcNAc
Procedure, shortened: as §1

GalNAc3S(b1-4)GlcNAc3S = target: GalNAc3S(b1-4)GlcNAc3S
Procedure, shortened: as §1

[4] = target: GalNAc3S(b1-4)[Fuc(a1-3)]GlcNAc
Procedure, shortened: as §1

GalNAc4S6S(b1-4)GlcNAc = target: GalNAc4S6S(b1-4)GlcNAc
Procedure, shortened: as §1

GalNAc6S(b1-4)GlcNAc = target: GalNAc6S(b1-4)GlcNAc
Procedure, shortened: as §1

Glc(a1-4)Glc = target: Glc(a1-4)Glc
Procedure, shortened: as §1

[5] = target: Glc(a1-4)Glc(a1-4)Glc(a1-4)Glc
Procedure, shortened: as §1

Glc(a1-6)Glc(a1-6)Glc = target: Glc(a1-6)Glc(a1-6)Glc
Procedure, shortened: as §1

[6] = target: Glc(a1-6)Glc(a1-6)Glc(a1-6)Glc
Procedure, shortened: as §1

Glc(b1-4)Glc = target: Glc(b1-4)Glc
Procedure, shortened: as §1

Glc(b1-6)Glc = target: Glc(b1-6)Glc
Procedure, shortened: as §1

GlcA(b1-3)Gal = target: GlcA(b1-3)Gal
Procedure, shortened: as §1

GlcA(b1-3)GlcNAc = target: GlcA(b1-3)GlcNAc
Procedure, shortened: as §1

GlcA(b1-6)Gal = target: GlcA(b1-6)Gal
Procedure, shortened: as §1

[7] = target: GlcA3S(b1-3)Gal(b1-4)GlcNAc(b1-2)Man
Procedure, shortened: as §1

[8] = target: GlcA3S(b1-3)Gal(b1-4)GlcNAc(b1-3)Gal(b1-4)Glc
Procedure, shortened: as §1

[9] = target: GlcNAc(a1-3)Gal(b1-4)GlcNAc
Procedure, shortened: as §1

[10] = target: GlcNAc(a1-4)Gal(b1-3)GlcNAc
Procedure, shortened: as §1

[11] = target: GlcNAc(a1-4)Gal(b1-4)GalNAc
Procedure, shortened: as §1

[12] = target: GlcNAc(a1-4)Gal(b1-4)GlcNAc
Procedure, shortened: as §1

[13] = target: GlcNAc(a1-4)Gal(b1-4)GlcNAc(b1-3)Gal(b1-4)Glc
Procedure, shortened: as §1

[14] = target: GlcNAc(a1-4)Gal(b1-4)GlcNAc(b1-3)Gal(b1-4)GlcNAc
Procedure, shortened: as §1

[15] = target: GlcNAc(a1-4)Gal(b1-4)GlcNAc(b1-3)Gal(b1-4)GlcNAc(b1-3)Gal(b1-4)GlcNAc
Procedure, shortened: as §1

[16] = target: GlcNAc(a1-4)Gal(b1-4)GlcNAc(b1-3)Gal(b1-4)[Fuc(a1-3)]GlcNAc(b1-3)Gal(b1-4)[Fuc(a1-3)]GlcNAc
Procedure, shortened: as §1

[17] = target: GlcNAc(a1-6)Gal(b1-4)GlcNAc
Procedure, shortened: as §1

[18] = target: GlcNAc(b1-2)Gal(b1-3)GalNAc
Procedure, shortened: as §1

[19] = target: GlcNAc(b1-2)Man(a1-3)[GlcNAc(b1-2)Man(a1-6)]Man(b1-4)GlcNAc(b1-4)GlcNAc
Procedure, shortened: as §1

[20] = target: GlcNAc(b1-2)Man(a1-3)[GlcNAc(b1-2)Man(a1-6)]Man(b1-4)GlcNAc(b1-4)[Fuc(a1-6)]GlcNAc
Procedure, shortened: as §1

[21] = target: GlcNAc(b1-2)Man(a1-3)[GlcNAc(b1-4)][GlcNAc(b1-2)Man(a1-6)]Man(b1-4)GlcNAc(b1-4)GlcNAc
Procedure, shortened: as §1

[22] = target: GlcNAc(b1-2)Man(a1-3)[GlcNAc(b1-4)][GlcNAc(b1-2)Man(a1-6)]Man(b1-4)GlcNAc(b1-4)[Fuc(a1-6)]GlcNAc
Procedure, shortened: as §1

[23] = target: GlcNAc(b1-2)[GlcNAc(b1-4)]Man(a1-3)[GlcNAc(b1-2)Man(a1-6)]Man(b1-4)GlcNAc(b1-4)GlcNAc
Procedure, shortened: as §1

[24] = target: GlcNAc(b1-2)[GlcNAc(b1-4)]Man(a1-3)[GlcNAc(b1-4)][GlcNAc(b1-2)Man(a1-6)]Man(b1-4)GlcNAc(b1-4)GlcNAc
Procedure, shortened: as §1

[25] = target: GlcNAc(b1-2)[GlcNAc(b1-4)]Man(a1-3)[GlcNAc(b1-4)][GlcNAc(b1-2)[GlcNAc(b1-6)]Man(a1-6)]Man(b1-4)GlcNAc(b1-4)GlcNAc
Procedure, shortened: as §1

[26] = target: GlcNAc(b1-2)[GlcNAc(b1-4)]Man(a1-3)[GlcNAc(b1-4)][GlcNAc(b1-2)[GlcNAc(b1-6)]Man(a1-6)]Man(b1-4)GlcNAc(b1-4)[Fuc(a1-6)]GlcNAc
Procedure, shortened: as §1

[27] = target: GlcNAc(b1-2)[GlcNAc(b1-6)]Man(a1-6)[GlcNAc(b1-2)Man(a1-3)]Man(b1-4)GlcNAc(b1-4)GlcNAc
Procedure, shortened: as §1

[28] = target: GlcNAc(b1-2)[GlcNAc(b1-6)]Man(a1-6)[GlcNAc(b1-2)Man(a1-3)]Man(b1-4)GlcNAc(b1-4)[Fuc(a1-6)]GlcNAc
Procedure, shortened: as §1

[29] = target: GlcNAc(b1-2)[GlcNAc(b1-6)]Man(a1-6)[GlcNAc(b1-4)][GlcNAc(b1-2)Man(a1-3)]Man(b1-4)GlcNAc(b1-4)GlcNAc
Procedure, shortened: as §1

GlcNAc(b1-3)Fuc = target: GlcNAc(b1-3)Fuc
Procedure, shortened: as §1

GlcNAc(b1-3)Gal = target: GlcNAc(b1-3)Gal
Procedure, shortened: as §1

B1: CFEM-PPl (Pichia pastoris), F2QPV1 (protein)
chain: AVATPPACLLACAAEVVKESSDCDALNNIQCICENEGSAIHACLESTCPDGLSSTALQSFEDVCESVGTEANLDE
glycan array binding signal (z-score) (GalNAc(b1-4)GlcNAc): -0.06
glycan array binding signal (z-score) [1]: -0.202
glycan array binding signal (z-score) [2]: -0.27
glycan array binding signal (z-score) [3]: -0.316
glycan array binding signal (z-score) (GalNAc(b1-4)GlcNAc6S): -0.241
glycan array binding signal (z-score) (GalNAc(b1-6)GalNAc): -0.207
glycan array binding signal (z-score) (GalNAc3S(b1-4)GlcNAc): -0.362
glycan array binding signal (z-score) (GalNAc3S(b1-4)GlcNAc3S): -0.247
glycan array binding signal (z-score) [4]: -0.207
glycan array binding signal (z-score) (GalNAc4S6S(b1-4)GlcNAc): -0.229
glycan array binding signal (z-score) (GalNAc6S(b1-4)GlcNAc): -0.186
glycan array binding signal (z-score) (Glc(a1-4)Glc): -0.201
glycan array binding signal (z-score) [5]: -0.277
glycan array binding signal (z-score) (Glc(a1-6)Glc(a1-6)Glc): -0.28
glycan array binding signal (z-score) [6]: -0.232
glycan array binding signal (z-score) (Glc(b1-4)Glc): -0.275
glycan array binding signal (z-score) (Glc(b1-6)Glc): -0.28
glycan array binding signal (z-score) (GlcA(b1-3)Gal): -0.158
glycan array binding signal (z-score) (GlcA(b1-3)GlcNAc): -0.229
glycan array binding signal (z-score) (GlcA(b1-6)Gal): 1.49
glycan array binding signal (z-score) [7]: -0.288
glycan array binding signal (z-score) [8]: -0.349
glycan array binding signal (z-score) [9]: -0.335
glycan array binding signal (z-score) [10]: -0.34
glycan array binding signal (z-score) [11]: -0.285
glycan array binding signal (z-score) [12]: -0.161
glycan array binding signal (z-score) [13]: -0.357
glycan array binding signal (z-score) [14]: -0.209
glycan array binding signal (z-score) [15]: -0.278
glycan array binding signal (z-score) [16]: -0.027
glycan array binding signal (z-score) [17]: 1.68
glycan array binding signal (z-score) [18]: -0.247
glycan array binding signal (z-score) [19]: -0.263
glycan array binding signal (z-score) [20]: -0.088
glycan array binding signal (z-score) [21]: -0.298
glycan array binding signal (z-score) [22]: -0.286
glycan array binding signal (z-score) [23]: -0.193
glycan array binding signal (z-score) [24]: 0.002
glycan array binding signal (z-score) [25]: -0.379
glycan array binding signal (z-score) [26]: -0.149
glycan array binding signal (z-score) [27]: -0.302
glycan array binding signal (z-score) [28]: -0.088
glycan array binding signal (z-score) [29]: -0.345
glycan array binding signal (z-score) (GlcNAc(b1-3)Fuc): -0.321
glycan array binding signal (z-score) (GlcNAc(b1-3)Gal): -0.275
